Experimental data taken from PubChem BioAssay AID1508623 (National Center for Advancing Translational Sciences (NCATS), 2021).
Hit rate of the full screen: of about 48,000 compounds, about 450 (0.94%) were called active. Not shown: some 19% with an inconclusive outcome. The call rests on the fitted dose curve; in most records, active means well fitted inhibition curve with a large enough effect; inconclusive means small, poorly fitted or top-dose-only effect; inactive means no such curve, though single readings can be large or run the other way. The list shows a part of the results.

Experiment: Primary qHTS for Identification of Small Molecule Inhibitors of Huntingtin Promoter Activity; further: nearly all actives have a fitted effect of over 50% in size
Details: HEK293 HTT promoter firefly luciferase reporter (activity 0% = vehicle and -100% = no light), 24 h; series mostly up to 57.5 µM; activity change, negative = inhibition: at the top concentration
Summary of the method: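 HEK293 luciferase promoter-reporter cells (2,500/well) plated 24 h, then compounds added at up to 57.5 uM final for 24 h at 37 °C. Firefly luminescence by Dual-Glo, normalized to vehicle (0%) and zero RLU (-100%).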

Activity change, negative = inhibition, inactive:
O=C(CSc1nc2ccccc2nc1Cc1ccccc1)Nc1ccc2c(c1)OCO2 -6.29%
CCCOC(=O)CSc1nnc2ccc3ccccc3n12 -2.28%
COc1ccc(NC(=O)c2ccc3c(c2)CCN3S(=O)(=O)c2ccc(C)cc2)cc1Cl -9.23%
CCOC(=O)c1cccc(NC(=O)C(C)n2c(C)c3cnn(-c4ccccc4)c(=O)c3c2C)c1 (stereo not drawn) -29.1%
Cc1ccc(NC(=O)CN(C)S(=O)(=O)c2ccc3nc(C)sc3c2)c(C)c1 -26.8%
CC(C)NS(=O)(=O)c1ccc2nc(NC(=O)c3cncc(Br)c3)sc2c1 -24.4%
COc1ccc(Cl)cc1NC(=O)CCc1c(C)nc2c(c1C)c(=O)n(C)c(=O)n2C -8.23%
FC(F)(F)C(F)(F)C(F)(F)C(F)(F)C(F)(F)C(F)(F)C(F)(F)C(F)(F)Br 0.0175%
CCCSCCCNC(=O)c1ccc(Cn2c(=O)c3cccn3c3cccnc32)cc1 -4.15%
CCC(=O)N1CCc2cc(S(=O)(=O)CCC(=O)N3CCN(c4ccccc4F)CC3)ccc21 -3.34%
Cc1cc2oc(C(=O)Nc3nc(-c4ccccc4)ns3)c(C)c2cc1Cl 5.43%
CCOc1ccc(CNC(=O)c2sc3nc(C)cc(C)c3c2-n2cccc2)cc1 2.65%
Cc1ccc(NC(=O)CN2C(=O)CCc3cc(S(=O)(=O)N4CCOCC4)ccc32)c(C)c1 -12.2%
CN1CCN(C(CNC(=O)C(=O)Nc2ccc(F)cc2)c2cccnc2)CC1 (stereo not drawn) 33%
CCC(CC)C(=O)N1CCc2cc(OC)c(OC)cc2C1COc1ccccc1OC (stereo not drawn) -19.8%
Cc1ccc(C)c(Cn2nnc(C(=O)NCc3ccccc3)c2N)c1 -23.4%
CCN(c1ccccc1)c1cc(NC)[n+](C)c(C)n1 -1.72%
CN1CCN(CCCN2c3ccccc3Sc3ccc(Cl)cc32)CC1
CCOc1ccc(NC(=O)CSc2nnc(NC(=O)Nc3ccccc3)s2)cc1 -9.17%
CCOc1ccc(-c2nonc2NC(=O)COc2ccc(C)c(C)c2)cc1OCC -5.37%
O=C(c1ccc2c(c1)N(Cc1cccc(Cl)c1)C(=O)c1ccccc1S2(=O)=O)N1CCN(c2cccc(C(F)(F)F)c2)CC1 -20.4%
CCOc1ccc(-c2cnc(NCc3cccc(Cl)c3)n2C)cc1 -2.87%
COc1ccc(C(=O)CCC(=O)Nc2cccc(C(C)=O)c2)cc1 10.9%
COc1ccc(CCNC(=O)Cn2c(=O)c3cccn3c3ccc(F)cc32)cc1OC -4.92%
Cc1ccc(Cn2c(=O)n(Cc3ccc(Cl)cc3)c(=O)c3cccnc32)cc1 -6.94%
Cc1ccccc1-n1nc(CO)c(C(=O)NCCc2ccccc2)n1 -7.44%
COc1cccc(NC(=O)C(=O)NCC(c2cccnc2)N2CCN(c3ccccc3)CC2)c1 (stereo not drawn) -4.69%
CC1CCc2c(sc(NC(=O)c3ccccc3)c2C(=O)Nc2ccccc2)C1 (stereo not drawn) -5.35%
CCOC(=O)CSc1nc2ccc(NC(=O)COc3ccccc3)cc2s1 0.524%
Cc1cccc(CSc2cn(CC(=O)N3CCCCCC3)c3ccccc23)c1 5.76%
O=C(NCc1ccc(Cl)cc1)c1cnc2sc(N3CCCCCC3)nn2c1=O 5.53%
COc1ccc(Cl)cc1NC(=O)C1CCN(c2ncnc3c2nc2n3CCCCC2)CC1 -11.7%
CCN(CC)c1ccc(NC(=O)c2cnn3c(C(F)F)cc(-c4ccccc4)nc23)cc1 1.6%
O=C(CCC(=O)N1Cc2ccccc2Oc2ncccc21)NCc1ccccc1Cl -13.4%
COc1ccc(C(c2c(O)cc(C)n(Cc3ccco3)c2=O)N2CCN(c3ccccc3)CC2)cc1 (stereo not drawn) -11.3%
Cc1cccc(CC(=O)NC2CC(=O)N(c3cccc(F)c3)C2)c1 (stereo not drawn) 5.08%
COc1ccc(OC)c(NC(=O)C2CCN(S(=O)(=O)c3ccc(C)cc3)CC2)c1 -14.8%
COCCNC(=O)CSc1nc(-c2ccc(F)cc2)[nH]c1-c1ccc(Cl)cc1 -32.8%
CC(CNC(=O)Cn1ncc2c3ccccc3n(Cc3cccc(Cl)c3)c2c1=O)c1ccccc1 (stereo not drawn) -9.31%
Nc1nc(=S)c2[nH]cnc2[nH]1 -23.2%
O=C(COc1ccccc1)Nc1ccc(OCc2cc(=O)n3ccsc3n2)cc1 -1.91%
CN(C(=O)CSc1nc2ncccc2o1)c1ccc(F)cc1 -0.49%
CC(C)CCNC(=O)C(=O)Nc1c2c(nn1-c1ccccc1)CS(=O)(=O)C2 -4.21%
COc1ccccc1N1CCN(S(=O)(=O)c2ccc(-c3cc(C(F)(F)F)on3)s2)CC1 -17.1%
CCOC(=O)c1cc(OC(=O)c2cccc(C)c2)n(-c2ccccc2)n1 -14.9%
COc1cccc(CNc2ncnc3onc(-c4ccc(F)cc4)c23)c1 -18.9%
COCc1cc(C)nc2sc3c(c12)NC(c1ccc(NC(C)=O)cc1)N(c1ccc(C)cc1)C3=O (stereo not drawn) 12.4%
O=c1c2ccccc2n(Cc2cccc(Cl)c2)c(=O)n1CCc1ccccc1 -23.4%
CC(=O)NCCc1nc2ccccc2n1CCCCOc1ccc(Cl)cc1 -26.5%
COc1cccc2cc(-c3nc4sc(C(=O)Nc5ccc(F)cc5F)c(C)c4c(=O)[nH]3)c(=O)oc12 4.42%
C[C@]12CCC3=C4CCC(=O)C=C4CC[C@@H]3[C@H]1CC[C@@]2(O)CC#N -7.23%
O=C1c2ccccc2C(=O)c2c1ccc(O)c2O 13.6%
COCc1cc(C)nc2sc3c(=O)n(-c4cc(C)ccc4C)nnc3c12 -2.5%
CCOC(=O)c1ccccc1NC(=O)N1CCN2CCCCC2C1 (stereo not drawn) -2.8%
CC(=O)Nc1nonc1-c1nnc(SCC(=O)Nc2cc(C)ccc2C)n1-c1ccccc1 -27.5%
COc1ccc(CNc2nc3c(S(=O)(=O)c4ccccc4)nnn3c3ccc(Cl)cc23)cc1 10.8%
CCOc1ccc(Nc2oc(/C=C/c3ccc(F)cc3)nc2C#N)cc1 0.843%
Cc1ccc(NC(=O)C(=O)NCC(c2cccnc2)N2CCN(C)CC2)cc1C (stereo not drawn) -16.3%
Cc1ccc(OCC(=O)Nc2ccc(C(=O)OCc3cc(=O)n4nc(C5CC5)sc4n3)cc2)cc1 -13.5%
COc1ccc(NC(=O)c2oc3c(c2C)-c2nn(Cc4c(F)cccc4Cl)cc2CC3)c(OC)c1 -6.13%
Cc1cc(C)c2c(CC(=O)Nc3nnc(C(C)C)s3)coc2c1 3.34%
Fc1ccccc1CNCCCSc1nnnn1-c1ccccc1 -5.38%
CCOC(=O)c1ccccc1NC(=O)CSc1ccc(-c2sc(-c3ccccc3)nc2C)nn1 -6.29%
Cc1cc(C)n(-c2nc3ccccc3nc2Nc2cccc(C(F)(F)F)c2)n1 1.12%
COc1ccc(C2C(C(=O)Nc3ccccc3)=C(C)Nc3nc(-c4ccccc4)nn32)cc1OC (stereo not drawn) -15.7%
COc1ccc(OC)c(-c2nc(Nc3ccccc3C)sc2CC(=O)O)c1 -22.7%
O=C1CCSC2(C(=O)N(Cc3ccc(F)cc3)c3ccccc32)N1c1ccccc1 (stereo not drawn) -21%
COc1ccc(NC(=O)C(=O)NCCc2ccccc2)cc1OC -2.84%
CC(C)CCNC(=O)CN1C(=O)COc2ccc(S(=O)(=O)N3CCOCC3)cc21 -12.3%
COc1cccc(C(=O)Nc2ccccc2C(=O)OCc2cc(=O)n3nc(C)sc3n2)c1 -12.9%
CCOC(=O)c1cccc(NC(=O)c2cc3c(Cl)nc4ccc(C)cc4c3s2)c1 -17.3%
CCc1ccc(NS(=O)(=O)c2ccc3[nH]cc(C(=O)NC4CCCC4)c(=O)c3c2)cc1 -17%
Fc1ccc(-c2cc(-c3nc(-c4cccc(Cl)c4)no3)[nH]n2)cc1 5.14%
COc1ccc(-c2noc(C3CC(=O)N(c4ccc(C)c(F)c4)C3)n2)c(OC)c1 (stereo not drawn) -22.3%
COc1ccccc1CNC(=O)CSc1ncc2c(n1)-c1ccccc1N(Cc1ccc(C)cc1)S2(=O)=O -5.92%
CC1CCC(NC(=O)c2ccc3c(c2)N(Cc2cccc(F)c2)C(=O)c2ccccc2S3)CC1 (stereo not drawn) 28.7%
Cc1ccc(C)c(NC(=O)C(C)n2c(=O)cc(C(F)(F)F)c3c(C)nn(C)c32)c1 (stereo not drawn) 6.16%
CCc1ccc(CNC(=O)c2ccc3c(c2)nc2n3CCOC2)cc1 0.896%
Cc1ccc(-c2nc(NC(=O)CSc3ccc4ccccc4n3)ns2)cc1 6.97%
Cc1ccccc1OCC(=O)Nc1ccc(C(=O)OCc2cc(=O)n3ccsc3n2)cc1 -8.1%
Cc1ccccc1NC(=O)c1nc(S(C)(=O)=O)ncc1N(Cc1ccco1)Cc1sccc1C -26.4%
CCN(C(=O)CCc1nc(-c2ccc(C)cc2)no1)c1cccc(Cl)c1 -23.4%
COc1cc2c(cc1OC)C(COc1ccc3c(C)cc(=O)oc3c1)N(C(=O)Cc1ccccc1)CC2 (stereo not drawn) -15.7%
COC(=O)c1cc2sccc2n1CC(=O)Nc1ccc(C)cc1C -14.4%
Cc1cc(C)c(Cn2c3ccccc3c3cnn(CC(=O)NCCC4=CCCCC4)c(=O)c32)c(C)c1 -12.9%
COc1cccc(CNC(=O)c2ccc3nc(-c4ccccc4)c(-c4ccccc4)nc3c2)c1OC -14.8%
CCOc1ccccc1C(=O)NC1(C(F)(F)F)C(=O)Nc2c1c(=O)[nH]c(=O)n2-c1ccccc1 (stereo not drawn) -13.6%
Cc1ccc(S(=O)(=O)c2cn(Cc3ccccc3)c3cc(N4CCCC4)c(F)cc3c2=O)cc1 -0.475%
Cc1ccc(NC(=O)Cn2nnc(C(=O)NCCc3ccccc3)c2N)cc1 -0.643%
Clc1ccc(-c2csc(-c3nc(-c4ccc(Br)s4)cs3)n2)cc1 -5.91%
Cc1ccc(NC(=O)c2c(C)nc3sc(C(=O)Nc4ccc(F)cc4)c(N)c3c2-c2ccc(Cl)cc2)c(C)c1 -20.1%
COc1cccc(NC(=O)CCc2nnc3n(Cc4ccccc4Cl)c(=O)c4ccccc4n23)c1 -0.0673%
CCOC(=O)C(O)c1ccccc1 (stereo not drawn) 2.82%
Cc1ccc(Nc2c(-c3ccc(N4CCOCC4)cc3)nc3cccc(C)n23)cc1 11.1%
O=C1CC(c2nnc(Cc3c(F)cccc3Cl)o2)CN1c1ccccc1 (stereo not drawn) -19.5%
CCOC(=O)c1ccc(NC2(c3ccccc3)C(=O)c3ccccc3C2=O)cc1 1.03%
CCOC(=O)c1ccc(NC(=O)c2sc3ccccc3c2Cl)cc1 56.4%
COc1ccccc1C(=O)Nc1nnc(S(=O)(=O)N2CCN(c3ccc(F)cc3)CC2)s1 -21.7%
